Data on 24 sequences can be found in the supplement of paper PMC11417369.

The other results are listed elsewhere or left out.

The assay has as its system PfSIP2 AP2 domain 1 (GST-tagged). The assay is described as follows: gcPBM binding intensity (ln(normalized median fluorescence intensity)); higher = stronger DNA binding. The gist of the method: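 An Agilent 4 × 180k array carrying primer-extended double-stranded 36-bp intergenic genomic probes and negative controls received GST-tagged P. falciparum DNA-binding domains expressed in E. coli, about 25 μg on average, for 1 h. The binding buffer contained 1× PBS, 1% milk, 0.2 mg/ml BSA, 0.5% salmon testes DNA and 0.03% Triton X-100. Binding intensity is the top Masliner-normalised natural-log median intensity across replicate spots of either probe orientation, read after Alexa488 anti-GST antibody staining and a 488 nm scan.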
For “TTTACATTAAATCACGCACACAAAAAAAAAAAAAAA [CACACA_site2418]”, the “gcPBM binding intensity (ln)” value was found to be 7.3.
As for “TATATATATATAATGTGTACATACTAAATAGAGGAC [XGTACX_site4153]”, the “gcPBM binding intensity (ln)” value was found to be 9.23.
For “GAAATGTATAAATCCATACACACATAAATTTTAATA [CACACA_site2364]”, the “gcPBM binding intensity (ln)” value came out at 6.96.
Turning to “TAAATATAAAAATGCACACACACAAAAAAAAAAAAA [CACACA_site895]”, the “gcPBM binding intensity (ln)” value is 7.44.
For “ATCTATGGAGCTTATACACACTTTTATATTTTAACA [CACACA_site5994]”, the “gcPBM binding intensity (ln)” value amounted to 7.06.
On to “TTTGAATTTTTATATACACACATTATTATATTATAT [CACACA_site1593]”, for which the “gcPBM binding intensity (ln)” value worked out at 7.
Regarding “TATTTATTTGTGGGGTGTACGAAATTTTTTTTTTTT [XGTACX_site5091]”, the “gcPBM binding intensity (ln)” value came out at 7.18.
Regarding “ATTATACATTTTAGATGTACATATTTTAAATTTAAT [XGTACX_site5174]”, the “gcPBM binding intensity (ln)” value came to 6.97.
Consider “ATATTTTGTATAATCACACACACTATTCTTAAATAG [CACACA_site7270]”, for which the “gcPBM binding intensity (ln)” value was 7.08.
On to “AGAAATTAATCGAAGTGTACATATAAACATACATAT [XGTACX_site5518]”, for which the “gcPBM binding intensity (ln)” value was found to be 6.9.
Consider “AACAAACAAACAAATATACACACTTTTGTATAAAGT [CACACA_site3509]”, for which the “gcPBM binding intensity (ln)” value was 6.81.
To “CCCACATAAAAAAATAAACACACATATGTATATATA [CACACA_site9040]” belongs 7.03.
“AAATGGGCTTATTTATGTACTTAAATATATCTACCC [XGTACX_site3823]”: the “gcPBM binding intensity (ln)” value was 6.94.
As for “TAATCAATTCAATATTGTACGATATTTACCTTTAAA [XGTACX_site4678]”, the “gcPBM binding intensity (ln)” value stood at 6.95.
In the case of “TACATATATATATACACACATACATATATATACGCA [CACACA_site792]” it was 7.08; in that of “AACCTCGTGTAATATGCATGTTCCCTTCAAAGTTTT [TGCATGCA_site459]”, 6.75.
“AAAAAAATCTATATTACACACATATATACCTATATA [CACACA_site7464]”: the “gcPBM binding intensity (ln)” value turned out to be 6.84.
As to “TACATTGTATACATATGTACACATATATATATATAT [XGTACX_site6174]”, the “gcPBM binding intensity (ln)” value came out at 9.37.
In the case of “TATTTATGTTATAATTGTACAATAAACAAATTTTTT [XGTACX_site5306]”, the “gcPBM binding intensity (ln)” value was found to be 6.93.
Turning to “AGCAGGATTAAAAAAAGTACAAGAATTAATATTTAA [XGTACX_site3413]”, the “gcPBM binding intensity (ln)” value came to 6.79.
In the case of “ATTTTTTATTGTTATAAAAAAAAAATTAAACAATTA [CACACA_negctrl_site1077]” it was 6.75.
Regarding “AATTATTATCCCCTCACACACAAAAATAAAAAGAAT [CACACA_site2885]”, the “gcPBM binding intensity (ln)” value stood at 7.56.
As to “TATATCTATAATATTACACACATATATTTATATTTT [CACACA_site7595]”, the “gcPBM binding intensity (ln)” value is 7.
Take “AAAGAAAATAACAAAATTTTGAAAACATCACATTCG [CACACA_negctrl_site89]”: the “gcPBM binding intensity (ln)” value stood at 6.92.
